The source of these data is the antibiotic and cytotoxicity screens of Wong et al. (2023).

Molecules are shown by their SMILES. The list shows a part of the results.

The test system of the first assay is HSkMC (human skeletal muscle cells). Kind of assay: cytotoxicity call (relative viability < 0.9). The settings on record: 10 µM.
Consider `Cc1noc(C)c1S(=O)(=O)N(C)C[C@H]1Oc2ccc(NS(=O)(=O)c3ccccc3)cc2CC(=O)N([C@H](C)CO)C[C@H]1C`, for which the cytotoxicity call is “inactive”.
Same read-out and setting: for `COc1ccc2c3c(n(c2c1)C)[C@H](CO)N(C[C@]13CN(C1)S(=O)(=O)c1ccc(cc1)C)S(=O)(=O)c1ccc(cc1)C` the value was “inactive”; for `C[C@@H]1CCCCO[C@@H](CN(C)C)[C@@H](C)CN([C@H](C)CO)C(=O)c2cc(NC(=O)CCCN(C)C)ccc2O1`, “inactive”; for `Cc1cccc(S(=O)(=O)N2C[C@@H](O)COC[C@@H]3O[C@H](CC(=O)NCCCN4CCOCC4)CC[C@H]32)c1`, “inactive”.
Take `C[C@@H]1CN([C@@H](C)CO)C(=O)Cc2cc(NS(=O)(=O)c3ccc(F)cc3)ccc2O[C@H]1CN(C)S(=O)(=O)c1ccccc1`: the cytotoxicity call is “inactive”.
Still for that read-out and setting: for `CC1(C)[C@H]2CC[C@@]1(C(=O)O)C(=O)C2=O` the value was “inactive”; for `C[C@H]1CCCCO[C@H](CN(C)Cc2ccc(C(=O)O)cc2)[C@@H](C)CN([C@@H](C)CO)C(=O)c2cc(NS(=O)(=O)c3cccs3)ccc2O1`, “inactive”; for `COC(=O)c1c2oc(c1C(=O)OC)C(=O)N[C@@H](Cc1ccccc1)Cn1cc(nn1)[C@H](Cc1ccccc1)NC(=O)N[C@@H](COC(=O)NCCCCCC(=O)NO)CC2`, “inactive”.
Regarding `COCC#Cc1cnc2c(c1)C(=O)N([C@@H](C)CO)C[C@H](C)[C@H](CN(C)C(=O)Nc1ccccc1OC)O2`, the cytotoxicity call was “inactive”.
The same measure, in the same setting: for `O=C(C[C@@H]1C[C@@H]2c3cc(NC(=O)C4CCOCC4)ccc3O[C@@H]2[C@@H](CO)O1)NCCN1CCCCC1` the value was “inactive”; for `COC(=O)c1ccc([C@H](c2c(N)n(CC(C)C)c(=O)[nH]c2=O)N2CCOCC2)cc1`, “inactive”.
For the compound `COc1ccc(NC(=O)N(C)C[C@@H]2Oc3c(NC(=O)C4CC4)cccc3C(=O)N([C@@H](C)CO)C[C@H]2C)cc1`, the cytotoxicity call is “inactive”.
Same read-out and setting: with `COc1cc(CN)cc(OC)c1OC` the entry was “inactive”.
Turning to `C[C@@H]1CCCCO[C@@H](CN(C)C(=O)Nc2ccc(F)cc2)[C@H](C)CN([C@H](C)CO)C(=O)c2cc(NS(=O)(=O)c3ccc(Cl)cc3)ccc2O1`, the cytotoxicity call is “inactive”.
On the same count and under the same terms, with `C[C@@H]1CCCCO[C@@H](CN(C)C(=O)Cc2ccccc2)[C@@H](C)CN([C@H](C)CO)C(=O)c2cc(NC(=O)Nc3ccc(C(F)(F)F)cc3)ccc2O1` the entry was “inactive”; with `C[C@H](CO)N1C[C@H](C)[C@@H](CN(C)C(=O)Cc2ccncc2)Oc2cc(C#Cc3ccccc3F)ccc2S1(=O)=O`, “inactive”; with `CCCCCCNC(=O)n1cc(F)c(=O)[nH]c1=O`, “inactive”.
Same read-out and setting: for `C[C@@H]1CN([C@@H](C)CO)C(=O)c2cc(NC(=O)Nc3ccccc3)ccc2O[C@@H](C)CCCCO[C@@H]1CN(C)Cc1ccc2c(c1)OCO2` the value was “inactive”; for `O=C(C[C@H]1C[C@H]2c3cc(NS(=O)(=O)c4ccc(F)cc4)ccc3O[C@H]2[C@H](CO)O1)NCc1ccccn1`, “inactive”.
Same read-out and setting: for `C[C@H]1CN([C@@H](C)CO)S(=O)(=O)c2ccc(C3=CCCC3)cc2O[C@@H]1CN(C)C(=O)c1cnccn1` the value was “inactive”; for `CO[C@@H]1CN(C)C(=O)c2ccc(NS(C)(=O)=O)cc2OC[C@@H](C)N(C(=O)CN(C)C)C[C@@H]1C`, “inactive”; for `COc1ccc([Si](C)(C)[C@H]2[C@H](CCO)O[C@@]3(C(=O)N(Cc4ccccc4)c4ccc(N5C(=O)COc6ccccc65)cc43)[C@@H]2C)cc1`, “inactive”.
`Cc1noc(C)c1S(=O)(=O)N(C)C[C@H]1Oc2ccc(N(C)C)cc2CC(=O)N([C@@H](C)CO)C[C@@H]1C`: the cytotoxicity call is “inactive”.
Still for that read-out and setting: for `Cc1ccc(S(=O)(=O)Nc2ccc3c(c2)C(=O)N([C@@H](C)CO)C[C@H](C)[C@H](CN(C)S(=O)(=O)c2ccc(F)cc2)OCCCC[C@@H](C)O3)cc1` the value was “inactive”.
Same read-out and setting: for `NC(=O)c1cc(S(=O)(=O)N2CCOCC2)ccc1F` the value was “inactive”; for `C=CCN1C(=O)[C@]2(O[C@H](CCn3cc([C@H](O)c4ccccc4)nn3)[C@@H]([Si](C)(C)c3ccc(OC)cc3)[C@@H]2C)c2cc(N3CCOC3=O)ccc21`, “inactive”.
Still for that read-out and setting: with `C[C@@H]1CCCCO[C@@H](CN(C)C(=O)Nc2ccc3c(c2)OCO3)[C@@H](C)CN([C@H](C)CO)C(=O)c2cc(NC(=O)Nc3ccccc3)ccc2O1` the entry was “inactive”.

The subject of another assay is HepG2. Briefly: cytotoxicity call (relative viability < 0.9). The settings on record: 10 µM.
As for `CC(C)CCC[C@@H](C)[C@H]1CC[C@@]2(C)C3=C(CC[C@]12C)[C@@]1(C)CC[C@H](OC(=O)CCl)C(C)(C)[C@@H]1CC3`, the cytotoxicity call was “inactive”.
Same read-out and setting: with `COc1ccc(C#Cc2ccc3c(c2)O[C@@H](CN(C)S(=O)(=O)c2ccccc2F)[C@@H](C)CN([C@H](C)CO)S3(=O)=O)cc1` the entry was “inactive”; with `C[C@H](CO)N1C[C@H](C)[C@H](CN(C)S(=O)(=O)c2cn(C)cn2)Oc2ccc(NS(=O)(=O)c3ccc(F)cc3)cc2CC1=O`, “inactive”.
On the same count and under the same terms, for `O=c1[nH]ncc2ccccc12` the value was “inactive”.
Still for that read-out and setting: with `CO[C@@H](CN(C)C(=O)Nc1ccc(C(F)(F)F)cc1)[C@@H](C)CN(Cc1ccccc1Cl)[C@@H](C)CO` the entry was “inactive”.
On to `C[C@H]1CN([C@@H](C)CO)C(=O)Cc2cc(NC(=O)Nc3cccc4ccccc34)ccc2O[C@H]1CN(C)Cc1ccc(Cl)c(Cl)c1`, for which the cytotoxicity call is “inactive”.
On the same count and under the same terms, for `Cc1cc(=O)[nH]c(=S)[nH]1` the value was “inactive”.
In the case of `C[C@H](CO)N1C[C@H](C)[C@@H](CN(C)C(=O)Nc2ccc3c(c2)OCO3)OCCCC[C@H](C)Oc2ccc(NC(=O)Nc3ccc(C(F)(F)F)cc3)cc2C1=O`, the cytotoxicity call was “inactive”.
Same read-out and setting: for `O=C1CCSc2ccc(F)cc21` the value was “inactive”; for `C[C@H](O)C#Cc1ccc2c(c1)O[C@H](CN(C)C(=O)c1ccncc1)[C@H](C)CN([C@H](C)CO)S2(=O)=O`, “inactive”.
Still for that read-out and setting: with `Cn1c(=O)c2[nH]cnc2n(C)c1=O` the entry was “inactive”; with `C[C@H]1CN([C@@H](C)CO)C(=O)c2cccc(NC(=O)CCCCCC(=O)Nc3ccccc3N)c2O[C@@H]1CN(C)Cc1ccc(-c2ccccc2)cc1`, “inactive”.
Still for that read-out and setting: for `CN(C)C(=O)CN1C[C@]23CN(Cc4cnn(C)c4)C[C@@H](C[C@@H]2S1(=O)=O)O3` the value was “inactive”; for `Cc1noc(C)c1S(=O)(=O)N(C)C[C@H]1Oc2ccc(NS(=O)(=O)c3ccccc3)cc2CC(=O)N([C@H](C)CO)C[C@H]1C`, “inactive”; for `COc1ccc2c3c(n(c2c1)C)[C@H](CO)N(C[C@]13CN(C1)S(=O)(=O)c1ccc(cc1)C)S(=O)(=O)c1ccc(cc1)C`, “inactive”.
Consider `C[C@@H]1CCCCO[C@@H](CN(C)C)[C@@H](C)CN([C@H](C)CO)C(=O)c2cc(NC(=O)CCCN(C)C)ccc2O1`, for which the cytotoxicity call is “inactive”.
The same measure, in the same setting: with `Cc1cccc(S(=O)(=O)N2C[C@@H](O)COC[C@@H]3O[C@H](CC(=O)NCCCN4CCOCC4)CC[C@H]32)c1` the entry was “inactive”; with `C[C@@H]1CN([C@@H](C)CO)C(=O)Cc2cc(NS(=O)(=O)c3ccc(F)cc3)ccc2O[C@H]1CN(C)S(=O)(=O)c1ccccc1`, “inactive”.
On the same count and under the same terms, for `CC1(C)[C@H]2CC[C@@]1(C(=O)O)C(=O)C2=O` the value was “inactive”; for `C[C@H]1CCCCO[C@H](CN(C)Cc2ccc(C(=O)O)cc2)[C@@H](C)CN([C@@H](C)CO)C(=O)c2cc(NS(=O)(=O)c3cccs3)ccc2O1`, “inactive”; for `COC(=O)c1c2oc(c1C(=O)OC)C(=O)N[C@@H](Cc1ccccc1)Cn1cc(nn1)[C@H](Cc1ccccc1)NC(=O)N[C@@H](COC(=O)NCCCCCC(=O)NO)CC2`, “inactive”.
Same read-out and setting: with `COCC#Cc1cnc2c(c1)C(=O)N([C@@H](C)CO)C[C@H](C)[C@H](CN(C)C(=O)Nc1ccccc1OC)O2` the entry was “inactive”; with `O=C(C[C@@H]1C[C@@H]2c3cc(NC(=O)C4CCOCC4)ccc3O[C@@H]2[C@@H](CO)O1)NCCN1CCCCC1`, “inactive”; with `COC(=O)c1ccc([C@H](c2c(N)n(CC(C)C)c(=O)[nH]c2=O)N2CCOCC2)cc1`, “inactive”.
For the compound `COc1ccc(NC(=O)N(C)C[C@@H]2Oc3c(NC(=O)C4CC4)cccc3C(=O)N([C@@H](C)CO)C[C@H]2C)cc1`, the cytotoxicity call is “inactive”.
On the same count and under the same terms, for `COc1cc(CN)cc(OC)c1OC` the value was “inactive”; for `C[C@@H]1CCCCO[C@@H](CN(C)C(=O)Nc2ccc(F)cc2)[C@H](C)CN([C@H](C)CO)C(=O)c2cc(NS(=O)(=O)c3ccc(Cl)cc3)ccc2O1`, “active”.
On the same count and under the same terms, with `C[C@@H]1CCCCO[C@@H](CN(C)C(=O)Cc2ccccc2)[C@@H](C)CN([C@H](C)CO)C(=O)c2cc(NC(=O)Nc3ccc(C(F)(F)F)cc3)ccc2O1` the entry was “inactive”; with `C[C@H](CO)N1C[C@H](C)[C@@H](CN(C)C(=O)Cc2ccncc2)Oc2cc(C#Cc3ccccc3F)ccc2S1(=O)=O`, “inactive”.
As to `CCCCCCNC(=O)n1cc(F)c(=O)[nH]c1=O`, the cytotoxicity call was “active”.
The same measure, in the same setting: with `C[C@@H]1CN([C@@H](C)CO)C(=O)c2cc(NC(=O)Nc3ccccc3)ccc2O[C@@H](C)CCCCO[C@@H]1CN(C)Cc1ccc2c(c1)OCO2` the entry was “active”; with `O=C(C[C@H]1C[C@H]2c3cc(NS(=O)(=O)c4ccc(F)cc4)ccc3O[C@H]2[C@H](CO)O1)NCc1ccccn1`, “inactive”; with `C[C@H]1CN([C@@H](C)CO)S(=O)(=O)c2ccc(C3=CCCC3)cc2O[C@@H]1CN(C)C(=O)c1cnccn1`, “inactive”.
Still for that read-out and setting: for `CO[C@@H]1CN(C)C(=O)c2ccc(NS(C)(=O)=O)cc2OC[C@@H](C)N(C(=O)CN(C)C)C[C@@H]1C` the value was “inactive”.
The same measure, in the same setting: for `COc1ccc([Si](C)(C)[C@H]2[C@H](CCO)O[C@@]3(C(=O)N(Cc4ccccc4)c4ccc(N5C(=O)COc6ccccc65)cc43)[C@@H]2C)cc1` the value was “active”.
Regarding `Cc1noc(C)c1S(=O)(=O)N(C)C[C@H]1Oc2ccc(N(C)C)cc2CC(=O)N([C@@H](C)CO)C[C@@H]1C`, the cytotoxicity call was “inactive”.
On the same count and under the same terms, for `Cc1ccc(S(=O)(=O)Nc2ccc3c(c2)C(=O)N([C@@H](C)CO)C[C@H](C)[C@H](CN(C)S(=O)(=O)c2ccc(F)cc2)OCCCC[C@@H](C)O3)cc1` the value was “inactive”.
Same read-out and setting: with `NC(=O)c1cc(S(=O)(=O)N2CCOCC2)ccc1F` the entry was “active”; with `C=CCN1C(=O)[C@]2(O[C@H](CCn3cc([C@H](O)c4ccccc4)nn3)[C@@H]([Si](C)(C)c3ccc(OC)cc3)[C@@H]2C)c2cc(N3CCOC3=O)ccc21`, “inactive”; with `C[C@@H]1CCCCO[C@@H](CN(C)C(=O)Nc2ccc3c(c2)OCO3)[C@@H](C)CN([C@H](C)CO)C(=O)c2cc(NC(=O)Nc3ccccc3)ccc2O1`, “inactive”.
